# Reference: the supplement of paper PMC11417369
# ± gives the standard deviation of the averaged measurements. Some of the results follow.
# System: PfAP2-LT AP2 domain (GST-tagged)
# Assay: gcPBM binding intensity (ln(normalized median fluorescence intensity)); higher = stronger DNA binding
# In short: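 Binding intensity values are the highest Masliner-normalised natural-log median intensity among replicate spots of either probe orientation. The binding step lasted 1 h in 1× PBS with 1% milk, 0.2 mg/ml BSA, 0.5% salmon testes DNA and 0.03% Triton X-100, using GST-tagged P. falciparum DNA-binding domains expressed in E. coli on an Agilent 4 × 180k array of primer-extended double-stranded 36-bp intergenic genomic probes plus negative controls. Alexa488 anti-GST antibody and a 488 nm scan detected bound protein.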
row,Sequence,gcPBM binding intensity (ln)
1,ATATATTATTATAACTGTACTTTTTTTGTGGTTAAT [XGTACX_site8266],8.85 ± 0.42
2,TATGCGTATATATAAATACACACCAAATGTTAATAT [CACACA_site1713],8.91 ± 0.37
3,ATCATTTTTAAAGGAACACACAAAAAAAGTTATAAT [CACACA_site6761],8.79 ± 0.47
4,TATATATATATATATACACACAAAAAAATAAATTCT [CACACA_site98],9.38 ± 0.11
5,TACTTTTCATCTTCTTAACACACAAAAAAAAAAAAA [CACACA_site9290],8.32 ± 0.43
6,ATTTATTTTAATAATTGTACATGTTATTTTATATAT [XGTACX_site2667],8.84 ± 0.54
7,TATAAATATAAATACACACACATATATATTATATAT [CACACA_site4496],9.28 ± 0.26
8,TATATATATATATGTTGTACATATTTAAATGTTTAT [XGTACX_site5437],9.39 ± 0.071
9,ACCTATTTCAAACACACACACACACTAGCAAACATA [CACACA_site4695],9.88 ± 0.13
10,ATATATATATATATGTGTACATAATAACTTTGCTTA [XGTACX_site1255],9.61 ± 0.29
11,CTTATTTCCTTTTGTAGTACCTTATAATATATATAA [XGTACX_site8873],8.65 ± 0.33
12,GCATTTCTACTAAAAATACACACGATGATACAACGA [CACACA_site1756],8.86 ± 0.35
13,TTCTATTTGTAAAATTGTACAAAATAAATAACAAAA [XGTACX_site1007],8.45 ± 0.4
14,TAATAATAGTACTCACATCAAAGTATTATTAAAAAT [TGCATGCA_negctrl_site496],8.6 ± 0.48
15,GGGAAGTAGTAGTAATGTACTTATTTATTATGTGAC [XGTACX_site3985],8.84 ± 0.42
16,TTATATATTTTTTGCACACCAAAAAAGAGAATATTC [CACACA_site2730],8.68 ± 0.34
17,AATTAAATTATAAGCACACACATATATATATATATA [CACACA_site3351],9.81 ± 0.057
18,CCACGTATAATATGTACACACACATAAATACAAAAA [CACACA_site4660],9.62 ± 0.49
19,TAAAAAATGTTATATACACACAGTATAAAAAAAAAT [CACACA_site7808],9.04 ± 0.45
20,AATATTCACATTTGTTGTACATTCCTAGTTATATAA [XGTACX_site491],8.86 ± 0.38
21,AAAAAATTTCAAATAACACACACTAATATATATATG [CACACA_site1426],9.05 ± 0.33
22,TAAATATATAATTGTAGTACTGTTTTATGTTCATAA [XGTACX_site1020],8.6 ± 0.35
23,TAAACAGATATATTTTGTACATATTGTATATTTTGT [XGTACX_site713],8.84 ± 0.47

row,Sequence,gcPBM binding intensity (ln)
1,AAGGAAAATTTTTGGTGTACACAAAAAAATCCAAAA [XGTACX_site3596],8.86 ± 0.58
2,ACACATATGACAAATAGTACATAAATATATAAATAT [XGTACX_site7141],9.22 ± 0.48
3,TTAATATATTATATTTGTACATATATATATATACAA [XGTACX_site4798],8.56 ± 0.35
4,AAATTGTGTTCATCAGCACACACAACATCATGTAAT [CACACA_site8556],9.38 ± 0.43
5,AATAAATCTTTTTGTTGTACTAAAAATATTATTAGC [XGTACX_site3335],8.41 ± 0.35
6,CGAAAGAAAAAAAGCACACACAGTTTTGAGCAATGA [CACACA_site2109],9.18 ± 0.46
7,ACAAAAAAGTAAAAAGTGCATGTAAAATATAAGTAT [GTGCAC_site9438],9.24 ± 0.48
8,TATAAATAAATATGTACACACATATATACCTTTCAT [CACACA_site7291],8.99 ± 0.42
9,AATAATTAACAAAAAAAAAAAAAAAAAAAAAAAAAA [GTGCAC_negctrl_site255],8.35 ± 0.24
10,TATGTATTATATATTTGTACTCATTCTAATTCCTTC [XGTACX_site7294],8.91 ± 0.53
11,TATCTTTATATATAGTGTACACATTAAACAAATCTC [XGTACX_site7381],8.75 ± 0.27
12,TATTAATGATAAGAATATTTTATATGATACATGCAT [CACACA_negctrl_site923],8.8 ± 0.51
13,TTTAGTTTTTATATAGCACACATATTGTGATTATGT [CACACA_site8316],9.01 ± 0.38
14,AATTTATAAAAGAAGAGGACACATATAAATATAAAT [XGTACX_site59],8.78 ± 0.52
15,ATATTCATATATTTACGTACATACATTTATATATTT [XGTACX_site7644],9.11 ± 0.52
16,ACATATATGTATAATACACACACTAATATATAATTG [CACACA_site1966],9.52 ± 0.19
17,ATTTAAAAAAAAACGGAATTTTTTTTTTTTTTAAAG [XGTACX_negctrl_site91],8.11 ± 0.52
18,TATATTAATGTTCATAGTACGTATGATTAGGAAAAA [XGTACX_site616],8.64 ± 0.45
19,GGAAAGACAGTTCACAGTACCCAGGAAATCTGCGGA [XGTACX_site4933],8.8 ± 0.61
20,TAATACAGATTAAAAGGTACACTTATTTGGTATTAT [XGTACX_site4966],8.81 ± 0.38
21,TTAATATGAATTATTACATGCAACTAAATATATTTA [TGCATGCA_site490],8.38 ± 0.44
22,ACAAAATATATAGACACACAAACACAAATATGTTTT [CACACA_site3016],9.09 ± 0.46
23,ATACAATTCTTACATTGTACTTTTTTTTTTTATCAC [XGTACX_site6327],8.83 ± 0.54

row,Sequence,gcPBM binding intensity (ln)
1,TGTATATCACATGAGAGGTGGAGATGGGGATAAATA [CACACA_negctrl_site1148],9.01 ± 0.13
2,TACAACCTTTAGACAAGTACAAGAATTATATGTGGC [XGTACX_site4581],8.82 ± 0.39
3,ACTAAAAAAATAAACACACAGATTTATATAATATAT [CACACA_site4884],8.89 ± 0.45
4,TCTATACCTATTCTTACACACATATGTATAAATATA [CACACA_site6407],9.04 ± 0.36
5,TTGACAACTCTTTTCATACACACAAAAAAAAAAAAA [CACACA_site2362],8.63 ± 0.36
6,AATTTGATAATATCATGTACATGAAAGAATTCATGA [XGTACX_site8463],8.7 ± 0.39
7,GTTAAAAGAAAAATATGTACATAAAAAAATTAGAAA [XGTACX_site578],8.71 ± 0.57
8,CTCTTGTTTCCATATAGTACGTAATAATATATACAA [XGTACX_site2428],8.71 ± 0.35
9,TATATATATATATGATGTACACATTTTATTATTTGT [XGTACX_site1147],9.54 ± 0.25
10,TTTTCAATTAAAAAAAAATTATATTTTATTATTACA [CACACA_negctrl_site142],7.96 ± 0.49
11,AAGATGGTAAAGAATTGTACGCGCATATATATATTT [XGTACX_site3904],9.15 ± 0.48
12,TACATAAATTAAAACACACACACACCCAAAAAAAAA [CACACA_site2261],9.9 ± 0.22
13,AAAAAATAAAAAGATACACACATATGTATAATATAC [CACACA_site1496],9.22 ± 0.46
14,GTGTATATTATTTTATCACACATGTACATATGTTAA [CACACA_site5473],8.99 ± 0.35
15,AATAAAAAAATATGAAATTATGACATATAGCATTTG [TGCATGCA_negctrl_site160],8.57 ± 0.52
16,TTTTTTGTTAAGTTGGTGCAAACAATAGTTATTGAC,8.58 ± 0.41
17,GGAGCACCCAGACACACACACACATATATATATATA [CACACA_site336],10.4 ± 0.19
18,TATATCTACTACACACGTACACAAAATAAGATACCT [XGTACX_site7886],9.16 ± 0.25
19,GAATTGTATTGGTACTGTACAATTAAATTAAAAAAA [XGTACX_site1891],8.63 ± 0.55
20,TGTAGTCTGGAGAAGAGTACATAGTATCTGGTAGCT [XGTACX_site2029],8.86 ± 0.45
21,ACATAAAATTATTATACATGCATATTTAATTTTTTC [TGCATGCA_site353],8.69 ± 0.45
22,AAAAAAAAAAAACACACACACACACCCATATATAAA [CACACA_site1170],9.995 ± 0.064
23,AAAAATATAAACAAACGTACGAAGTGATGATATATT [XGTACX_site2242],9.13 ± 0.52

row,Sequence,gcPBM binding intensity (ln)
1,TATTATATTTTTATTTGTACGTAAAATTAAGTTATG [XGTACX_site2405],8.58 ± 0.44
2,GCACATTTTTTTATCACACATATAATTACAATATAA [CACACA_site5585],8.74 ± 0.31
3,TTTCGGTTTTTTTTTATTTTTTTTTTTTTATTATTT [CACACA_negctrl_site335],8.66 ± 0.59
4,TACGTATGCCTGTGATGTACATATATATATACATAC [XGTACX_site4728],9.21 ± 0.38
5,AAAAGATGCGCATACACACAGATGAATAACAAAAAA [CACACA_site6865],9.44 ± 0.6
6,ATAATATAATTTTGCAGTACCCAAAAAACAAAATAA [XGTACX_site4827],8.7 ± 0.45
7,AAAGTATAATAATACACACACTTTAAAAGTTAAATG [CACACA_site7550],9.17 ± 0.49
8,AATATGATATATATATGTACATATATATAATATAAT [XGTACX_site3072],8.99 ± 0.38
9,ATATAGGTAAAAAGTATACACACGTTGACACATTCT [CACACA_site1199],9.08 ± 0.37
10,TCATTATATCATGGTAGTACTCATTAATAATACGTA [XGTACX_site8701],8.57 ± 0.37
11,GTTAATAAAAATATATGTACATAATTATTATGAAAA [XGTACX_site3030],8.64 ± 0.41
12,TATATATTTTTTAAACCACACACAATATAGAGTATA [CACACA_site8106],8.9 ± 0.35
13,AATATTATTTAGGAGCGTACGTTTTATTTACATATT [XGTACX_site5188],8.98 ± 0.32
14,GGCATAAATATATGCACACACAAAAAAAAAAAAAAA [CACACA_site59],9.29 ± 0.52
15,ATATTGTTTTATATAGAACACACATAAAAATATATA [CACACA_site8314],8.65 ± 0.52
16,TTTTTTTTTTTAAAAAGTACACAATTAATTAATATA [XGTACX_site8494],8.1 ± 0.4
17,TATAAACATTATAAATGTACAAATATATATATATAT [XGTACX_site3218],9.21 ± 0.26
18,TTATTGAAAAAAGAACAAAAAAAAAAAGAAAAATTA [XGTACX_negctrl_site438],8.17 ± 0.48
19,AAAATAAGAAATAGATGTACTTATAAATAAATACAA [XGTACX_site4441],8.56 ± 0.57
20,GAAAGAATAAAATTTACACACATATATATATACATA [CACACA_site2250],8.98 ± 0.38
